Measurements: the supplement of paper PMC11417369
The other results are listed elsewhere or left out.

The sequences below were run on PfSIP2 AP2 domain 1 (GST-tagged) (assay: gcPBM binding intensity (ln(normalized median fluorescence intensity)); higher = stronger DNA binding).
In short: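 Probes on an Agilent 4 × 180k array were primer-extended, double-stranded and 36 bp long, taken from intergenic genomic regions, with negative controls added. GST-tagged P. falciparum DNA-binding domains from E. coli, about 25 μg on average, were applied to the array for 1 h in 1× PBS containing 1% milk, 0.2 mg/ml BSA, 0.5% salmon testes DNA and 0.03% Triton X-100. Binding intensity, obtained after Alexa488 anti-GST antibody detection and a 488 nm scan, is the highest Masliner-normalised natural-log median intensity across replicate spots of either probe orientation.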

Q: Which “gcPBM binding intensity (ln)” value does the source give for “ATATACATATATATGGGTACATATATTAATATATAT [XGTACX_site8358]” here?
A: Its value is 7.2.

Q: How did the “gcPBM binding intensity (ln)” value turn out when “ATTTTGAAAAATAAAAGTACATATAATATATCTACA [XGTACX_site7185]” was run?
A: Its value is 6.93.

Q: “TTAACATATTATAAGTGTACATATTTATAAACAAGA [XGTACX_site8806]” was tested. Which “gcPBM binding intensity (ln)” value did it give?
A: The value was 7.37.

Q: Which “gcPBM binding intensity (ln)” value does the source give for “TCTGTTAATATTTATACACACATATTTATTTATATA [CACACA_site6658]” here?
A: Its value is 7.09.

Q: For “TTTAGATATATGGTAGTGCATAATAAAAATATAGCC [GTGCAC_site9449]”, which “gcPBM binding intensity (ln)” value is on record?
A: Its value is 8.94.

Q: With “CACTCCATATTATACACACACACAAATGAAAAAAAT [CACACA_site3019]” as the sequence, how does the “gcPBM binding intensity (ln)” value read?
A: The value was 7.41.

Q: For “AATTAGATTTACTGAAGTACTTAATTTATTTTATTA [XGTACX_site3407]”, which “gcPBM binding intensity (ln)” value is on record?
A: The value was 6.82.

Q: Which “gcPBM binding intensity (ln)” value does the source give for “AATAATCTATATTGTACACACAAAATGGGAAAAAAA [CACACA_site6969]” here?
A: Its value is 7.17.

Q: With “AGGTACTTTTTTAAAACACACATATAACATATACAC [CACACA_site6629]” as the sequence, how does the “gcPBM binding intensity (ln)” value read?
A: The value was 7.3.

Q: Which “gcPBM binding intensity (ln)” value does the source give for “ACCCCCAATACGGAAACACACAAGTTATTTTATCAT [CACACA_site8874]” here?
A: The value was 7.42.

Q: With “TTAAATGAAAAATGGGGTACATATATACAAATATAT [XGTACX_site5931]” as the sequence, how does the “gcPBM binding intensity (ln)” value read?
A: The value was 7.37.

Q: With “TGTTTATTTTTAAAAAGTACATATATAAAAAATATC [XGTACX_site4902]” as the sequence, how does the “gcPBM binding intensity (ln)” value read?
A: The value was 7.22.

Q: For “ATAATTTGGAAACACACACACACACCCACATATATA [CACACA_site2286]”, which “gcPBM binding intensity (ln)” value is on record?
A: The value was 7.12.

Q: With “TGATTATACGCACGCGCACACACAACCAAAAAAAAA [CACACA_site3537]” as the sequence, how does the “gcPBM binding intensity (ln)” value read?
A: Its value is 7.65.

Q: “AAAAAAAAATACTACTGTACTTTTTTTGGACATCTA [XGTACX_site1096]” was tested. Which “gcPBM binding intensity (ln)” value did it give?
A: The value was 6.75.

Q: With “AAAAAAGGAAAAGATACACACCGTAAATTAAAATTT [CACACA_site5908]” as the sequence, how does the “gcPBM binding intensity (ln)” value read?
A: The value was 6.54.

Q: “ATATATTTATATATTACACACAATATTGTACAGATA [CACACA_site8215]” was tested. Which “gcPBM binding intensity (ln)” value did it give?
A: The value was 7.18.

Q: Which “gcPBM binding intensity (ln)” value does the source give for “GAAGGAATATACAATTGTACTTGGCAAAAAAAAAAA [XGTACX_site1884]” here?
A: Its value is 7.05.

Q: For “AAATACTTGTCATATTGTACATGTTTGTGATATATA [XGTACX_site3185]”, which “gcPBM binding intensity (ln)” value is on record?
A: The value was 6.93.

Q: For “GTTAAGAATATATAATGTACTTATTTTAATATAGTA [XGTACX_site6088]”, which “gcPBM binding intensity (ln)” value is on record?
A: Its value is 7.07.

Q: For “CTCTGTTGTCTTAGTTGTACAATAGAAAAAAATAAT [XGTACX_site7043]”, which “gcPBM binding intensity (ln)” value is on record?
A: The value was 7.77.

Q: How did the “gcPBM binding intensity (ln)” value turn out when “TCTTTTAAACAGTACACACACACATCTATATTTATA [CACACA_site6559]” was run?
A: The value was 7.34.

Q: “ATATATATATATATATGTACATATTGTATTAATTAT [XGTACX_site1919]” was tested. Which “gcPBM binding intensity (ln)” value did it give?
A: Its value is 9.29.

Q: Which “gcPBM binding intensity (ln)” value does the source give for “TTTTTTACTTTTGAGACATTTCATATTTTTATTCAC [GTGCAC_negctrl_site730]” here?
A: The value was 6.91.

Q: How did the “gcPBM binding intensity (ln)” value turn out when “TACAGGAATATTTTTACACACTAAAAATTATAAAAT [CACACA_site1649]” was run?
A: The value was 6.88.

Q: Which “gcPBM binding intensity (ln)” value does the source give for “TGATTGAGTAAAATGGGTACATATACACTATTACAT [XGTACX_site5232]” here?
A: Its value is 6.84.

Q: For “ATATTGTATTTATGTACACACATTTTTGGAATATGA [CACACA_site4861]”, which “gcPBM binding intensity (ln)” value is on record?
A: The value was 7.09.

Q: For “TTTTTTCTCTGTGGCTGTACTTTGAAGATATTTTAT [XGTACX_site8243]”, which “gcPBM binding intensity (ln)” value is on record?
A: Its value is 7.18.

Q: For “AAAGGTTCACATTATATAGTTATGTAATATATATGT [CACACA_negctrl_site542]”, which “gcPBM binding intensity (ln)” value is on record?
A: The value was 6.84.

Q: With “TAAAATATATATATGTGTACATAACATATAATTTTT [XGTACX_site1725]” as the sequence, how does the “gcPBM binding intensity (ln)” value read?
A: The value was 6.89.

Q: How did the “gcPBM binding intensity (ln)” value turn out when “TTATTTAGTATATTATGTACATACAATGCCTGGGAA [XGTACX_site4578]” was run?
A: The value was 7.33.

Q: For “ATATGTTACAGACACACACACACATAAAAAAACAAA [CACACA_site3248]”, which “gcPBM binding intensity (ln)” value is on record?
A: Its value is 7.21.

Q: “AGTATAAAAATATATTTACACACTATATATATCGAA [CACACA_site8494]” was tested. Which “gcPBM binding intensity (ln)” value did it give?
A: Its value is 7.

Q: How did the “gcPBM binding intensity (ln)” value turn out when “TATTGTTGTTCATGTACACACTATAATAAAAGCAAT [CACACA_site6148]” was run?
A: The value was 7.25.

Q: For “TTTTCATATTATAGTGCACACAAAAATATATATATG [CACACA_site8929]”, which “gcPBM binding intensity (ln)” value is on record?
A: Its value is 10.8.

Q: For “GTACATAGATTGTACATACACACCTATATAAATATC [CACACA_site3225]”, which “gcPBM binding intensity (ln)” value is on record?
A: Its value is 7.09.

Q: How did the “gcPBM binding intensity (ln)” value turn out when “AATATATGGTTCCATGATATTAAATTCAATTTAATG [CACACA_negctrl_site605]” was run?
A: Its value is 6.8.

Q: Which “gcPBM binding intensity (ln)” value does the source give for “TTTTTTTTGTTCTATACAATTATAAAAATAAAATAT [XGTACX_negctrl_site53]” here?
A: Its value is 6.84.

Q: Which “gcPBM binding intensity (ln)” value does the source give for “GCTTATATAAAAAGTTGTACAACCGAATCTTTTACA [XGTACX_site2119]” here?
A: The value was 7.44.

Q: For “TAATATCATTTATGTAGTACTATAACAAGAACTATA [XGTACX_site3618]”, which “gcPBM binding intensity (ln)” value is on record?
A: The value was 6.92.

Q: Which “gcPBM binding intensity (ln)” value does the source give for “AAAAAAAAAAAGCACACACACATATGAGTATATATA [CACACA_site4683]” here?
A: Its value is 6.94.

Q: “AATGTAAAAGTAAACACACACATATATAAATACATA [CACACA_site5386]” was tested. Which “gcPBM binding intensity (ln)” value did it give?
A: The value was 7.

Q: For “TACACAAGCAGACACACACACATATATATATATATA [CACACA_site1270]”, which “gcPBM binding intensity (ln)” value is on record?
A: Its value is 9.13.

Q: For “TAGATATATAGACACACACACATTAATACCTATATT [CACACA_site7605]”, which “gcPBM binding intensity (ln)” value is on record?
A: Its value is 7.
